# Assay results: the supplement of paper PMC8728848
# Some of the results follow.
# B1: P-Selectin (Mus musculus), Q01102 (protein)
# chain: MAGCPKGSWTPRLRSVILGGAQLIWFSALISELVNQKEVAAWTYNYSTKAYSWNNSRVFCRRHFTDLVAIQNKNEIAHLNDVIPFFNSYYWIGIRKINNKWTWVGTNKTLTEEAENWADNEPNNKKNNQDCVEIYIKSNSAPGKWNDEPCFKRKRALCYTASCQDMSCSNQGECIETIGSYTCSCYPGFYGPECEYVKECGKVNIPQHVLMNCSHPLGEFSFNSQCTFSCAEGYELDGPGELQCLASGIWTNNPPKCDAVQCQSLEAPPHGTMACMHPIAAFAYDSSCKFECQPGYRARGSNTLHCTGSGQWSEPLPTCEAIACEPPEIPIHGSMDCVPSTGTFGYNSSCTFLCAEGFVLKGNDAIQCADSGQWTAPAPFCEALQCPEFPVPSKAQVNCSDPFGTLTYQSVCSFSCDEGSLLVGASVIRCLATGHWNGAPPECQAVSCAPMLSPENGSMTCVQPLGNSTYKSTCQFMCDEGFYLSGPERLDCSPSGHWTGTPPTCEAIKCPGIFAPEQGNLDCSHVHGEFGVGSICHFSCNEDFELLGSENVECTVSGRWSAPPPTCKGITSLPAPAVRCPALTTPGQGTMSCQHHLGSFGPNTTCYFGCKTGFTLRGANSLRCRASGQWTAVTPMCRAVKCSELHMDTAVAMNCSNPWGNFSYGSTCTFQCPEGQSLNGSVRATCREDGHWSDAMPTCQAGTLTIQEALTYLGGAVASTTGLAVGGTLLALLRKRLRKKDDGKCPLNPHSHLGTYGVFTNAAYDPTP
# Key:
# Assay in all cases: glycan array binding signal (z-score within array); higher = stronger binding
# Settings in all cases: glycan notation: IUPAC condensed, linker removed
# [1] = target: Gal(b1-4)GlcNAc(b1-3)Gal(b1-4)GlcNAc
# Outline: (§1)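 The binding signal is a Z-score computed within each array. Data were drawn from 3228 arrays in the Consortium for Functional Glycomics database, restricted to those with a known protein sequence. Scores were averaged over arrays of the same protein sequence at different concentrations or buffers, and over linkers, and negative values can be taken as non-binding.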
# [2] = target: Gal(b1-4)GlcNAc(b1-3)Gal(b1-4)GlcNAc(b1-3)Gal(b1-4)GlcNAc
# Outline: as §1
# [3] = target: Gal(b1-4)GlcNAc(b1-3)Gal(b1-4)[Fuc(a1-3)]GlcNAc(b1-3)Gal(b1-4)[Fuc(a1-3)]GlcNAc
# Outline: as §1
# [4] = target: Gal(b1-4)GlcNAc(b1-3)GalNAc
# Outline: as §1
# [5] = target: Gal(b1-4)GlcNAc(b1-3)[Gal(b1-4)GlcNAc(b1-6)]Gal(b1-4)GlcNAc
# Outline: as §1
# [6] = target: Gal(b1-4)GlcNAc(b1-3)[Gal(b1-4)GlcNAc(b1-6)]GalNAc
# Outline: as §1
# [7] = target: Gal(b1-4)GlcNAc(b1-3)[GlcNAc(b1-6)]Gal(b1-4)GlcNAc
# Outline: as §1
# [8] = target: Gal(b1-4)GlcNAc(b1-6)Gal(b1-4)GlcNAc
# Outline: as §1
# [9] = target: Gal(b1-4)GlcNAc(b1-6)Gal(b1-4)GlcNAc(b1-6)GalNAc
# Outline: as §1
# [10] = target: Gal(b1-4)GlcNAc(b1-6)GalNAc
# Outline: as §1
# [11] = target: Gal(b1-4)GlcNAc(b1-6)[Gal(b1-3)]GalNAc
# Outline: as §1
# Gal3S(b1-3)GalNAc = target: Gal3S(b1-3)GalNAc
# Outline: as §1
# Gal3S(b1-3)GlcNAc = target: Gal3S(b1-3)GlcNAc
# Outline: as §1
# [12] = target: Gal3S(b1-3)[Fuc(a1-4)]GlcNAc
# Outline: as §1
# Gal3S(b1-4)Glc = target: Gal3S(b1-4)Glc
# Outline: as §1
# Gal3S(b1-4)Glc6S = target: Gal3S(b1-4)Glc6S
# Outline: as §1
# Gal3S(b1-4)GlcNAc = target: Gal3S(b1-4)GlcNAc
# Outline: as §1
# Gal3S(b1-4)GlcNAc6S = target: Gal3S(b1-4)GlcNAc6S
# Outline: as §1
# [13] = target: Gal3S(b1-4)[Fuc(a1-3)]Glc
# Outline: as §1
# Gal3S4S(b1-4)GlcNAc = target: Gal3S4S(b1-4)GlcNAc
# Outline: as §1
# Gal3S6S(b1-4)GlcNAc = target: Gal3S6S(b1-4)GlcNAc
# Outline: as §1
# Gal3S6S(b1-4)GlcNAc6S = target: Gal3S6S(b1-4)GlcNAc6S
# Outline: as §1
# Gal4S(b1-4)GlcNAc = target: Gal4S(b1-4)GlcNAc
# Outline: as §1
# Gal4S6S(b1-4)GlcNAc = target: Gal4S6S(b1-4)GlcNAc
# Outline: as §1
# Gal6S(b1-4)Glc = target: Gal6S(b1-4)Glc
# Outline: as §1
# Gal6S(b1-4)Glc6S = target: Gal6S(b1-4)Glc6S
# Outline: as §1
# Gal6S(b1-4)GlcNAc = target: Gal6S(b1-4)GlcNAc
# Outline: as §1
# Gal6S(b1-4)GlcNAc6S = target: Gal6S(b1-4)GlcNAc6S
# Outline: as §1
# GalNAc(a1-3)Gal = target: GalNAc(a1-3)Gal
# Outline: as §1
# GalNAc(a1-3)GalNAc = target: GalNAc(a1-3)GalNAc
# Outline: as §1
# GalNAc(b1-3)Gal = target: GalNAc(b1-3)Gal
# Outline: as §1
# [14] = target: GalNAc(b1-3)Gal(a1-4)Gal(b1-4)GlcNAc
# Outline: as §1
# GalNAc(b1-3)GalNAc = target: GalNAc(b1-3)GalNAc
# Outline: as §1
# GalNAc(b1-4)GlcNAc = target: GalNAc(b1-4)GlcNAc
# Outline: as §1
# Glc(a1-4)Glc = target: Glc(a1-4)Glc
# Outline: as §1
# Glc(a1-6)Glc(a1-6)Glc = target: Glc(a1-6)Glc(a1-6)Glc
# Outline: as §1
# Glc(b1-4)Glc = target: Glc(b1-4)Glc
# Outline: as §1
# Glc(b1-6)Glc = target: Glc(b1-6)Glc
# Outline: as §1
# GlcA(b1-3)Gal = target: GlcA(b1-3)Gal
# Outline: as §1
# GlcA(b1-3)GlcNAc = target: GlcA(b1-3)GlcNAc
# Outline: as §1
# GlcA(b1-6)Gal = target: GlcA(b1-6)Gal
# Outline: as §1
# [15] = target: GlcNAc(a1-3)Gal(b1-4)GlcNAc
# Outline: as §1
# [16] = target: GlcNAc(a1-6)Gal(b1-4)GlcNAc
# Outline: as §1
# [17] = target: GlcNAc(b1-2)Gal(b1-3)GalNAc
# Outline: as §1
# [18] = target: GlcNAc(b1-2)Man(a1-3)[GlcNAc(b1-2)Man(a1-6)]Man(b1-4)GlcNAc(b1-4)GlcNAc
# Outline: as §1
# GlcNAc(b1-3)Gal = target: GlcNAc(b1-3)Gal
# Outline: as §1
# [19] = target: GlcNAc(b1-3)Gal(b1-3)GalNAc
# Outline: as §1
# GlcNAc(b1-3)Gal(b1-4)Glc = target: GlcNAc(b1-3)Gal(b1-4)Glc
# Outline: as §1
# [20] = target: GlcNAc(b1-3)Gal(b1-4)GlcNAc
# Outline: as §1
# [21] = target: GlcNAc(b1-3)Gal(b1-4)GlcNAc(b1-3)Gal(b1-4)GlcNAc
# Outline: as §1
# GlcNAc(b1-3)GalNAc = target: GlcNAc(b1-3)GalNAc
# Outline: as §1
# GlcNAc(b1-3)Man = target: GlcNAc(b1-3)Man
# Outline: as §1
# [22] = target: GlcNAc(b1-3)[GlcNAc(b1-4)][GlcNAc(b1-6)]GlcNAc
# Outline: as §1
# [23] = target: GlcNAc(b1-3)[GlcNAc(b1-6)]Gal(b1-4)GlcNAc
# Outline: as §1
# [24] = target: GlcNAc(b1-3)[GlcNAc(b1-6)]GalNAc
# Outline: as §1
# [25] = target: GlcNAc(b1-3)[GlcNAc(b1-6)]GlcNAc(b1-4)GlcNAc
# Outline: as §1
# [26] = target: GlcNAc(b1-4)Gal(b1-4)GlcNAc
# Outline: as §1
# GlcNAc(b1-4)GlcNAc = target: GlcNAc(b1-4)GlcNAc
# Outline: as §1
# [27] = target: GlcNAc(b1-4)GlcNAc(b1-4)GlcNAc
# Outline: as §1
# [28] = target: GlcNAc(b1-4)GlcNAc(b1-4)GlcNAc(b1-4)GlcNAc(b1-4)GlcNAc
# Outline: as §1
binder,measurement,setting,value
B1,glycan array binding signal (z-score),[1],-0.29
same,glycan array binding signal (z-score),[2],-0.525
same,glycan array binding signal (z-score),[3],0.718
same,glycan array binding signal (z-score),[4],-0.56
same,glycan array binding signal (z-score),[5],-0.375
same,glycan array binding signal (z-score),[6],-0.495
same,glycan array binding signal (z-score),[7],-0.268
same,glycan array binding signal (z-score),[8],-0.251
same,glycan array binding signal (z-score),[9],-0.265
same,glycan array binding signal (z-score),[10],-0.609
same,glycan array binding signal (z-score),[11],-0.474
same,glycan array binding signal (z-score),Gal3S(b1-3)GalNAc,-0.32
same,glycan array binding signal (z-score),Gal3S(b1-3)GlcNAc,-0.121
same,glycan array binding signal (z-score),[12],3.6
same,glycan array binding signal (z-score),Gal3S(b1-4)Glc,-0.174
same,glycan array binding signal (z-score),Gal3S(b1-4)Glc6S,1.76
same,glycan array binding signal (z-score),Gal3S(b1-4)GlcNAc,-0.284
same,glycan array binding signal (z-score),Gal3S(b1-4)GlcNAc6S,1.04
same,glycan array binding signal (z-score),[13],4.89
same,glycan array binding signal (z-score),Gal3S4S(b1-4)GlcNAc,-0.069
same,glycan array binding signal (z-score),Gal3S6S(b1-4)GlcNAc,1.4
same,glycan array binding signal (z-score),Gal3S6S(b1-4)GlcNAc6S,2.53
same,glycan array binding signal (z-score),Gal4S(b1-4)GlcNAc,-0.332
same,glycan array binding signal (z-score),Gal4S6S(b1-4)GlcNAc,1.47
same,glycan array binding signal (z-score),Gal6S(b1-4)Glc,-0.169
same,glycan array binding signal (z-score),Gal6S(b1-4)Glc6S,1.68
same,glycan array binding signal (z-score),Gal6S(b1-4)GlcNAc,-0.055
same,glycan array binding signal (z-score),Gal6S(b1-4)GlcNAc6S,0.426
same,glycan array binding signal (z-score),GalNAc(a1-3)Gal,-0.702
same,glycan array binding signal (z-score),GalNAc(a1-3)GalNAc,-0.612
same,glycan array binding signal (z-score),GalNAc(b1-3)Gal,-0.351
same,glycan array binding signal (z-score),[14],-0.42
same,glycan array binding signal (z-score),GalNAc(b1-3)GalNAc,-0.507
same,glycan array binding signal (z-score),GalNAc(b1-4)GlcNAc,-0.467
same,glycan array binding signal (z-score),Glc(a1-4)Glc,-0.562
same,glycan array binding signal (z-score),Glc(a1-6)Glc(a1-6)Glc,-0.486
same,glycan array binding signal (z-score),Glc(b1-4)Glc,-0.122
same,glycan array binding signal (z-score),Glc(b1-6)Glc,-0.498
same,glycan array binding signal (z-score),GlcA(b1-3)Gal,-0.228
same,glycan array binding signal (z-score),GlcA(b1-3)GlcNAc,-0.204
same,glycan array binding signal (z-score),GlcA(b1-6)Gal,0.05
same,glycan array binding signal (z-score),[15],-0.599
same,glycan array binding signal (z-score),[16],-0.56
same,glycan array binding signal (z-score),[17],-0.618
same,glycan array binding signal (z-score),[18],-0.263
same,glycan array binding signal (z-score),GlcNAc(b1-3)Gal,-0.636
same,glycan array binding signal (z-score),[19],-0.589
same,glycan array binding signal (z-score),GlcNAc(b1-3)Gal(b1-4)Glc,-0.616
same,glycan array binding signal (z-score),[20],0.049
same,glycan array binding signal (z-score),[21],-0.268
same,glycan array binding signal (z-score),GlcNAc(b1-3)GalNAc,-0.559
same,glycan array binding signal (z-score),GlcNAc(b1-3)Man,-0.32
same,glycan array binding signal (z-score),[22],-0.393
same,glycan array binding signal (z-score),[23],-0.63
same,glycan array binding signal (z-score),[24],-0.369
same,glycan array binding signal (z-score),[25],-0.719
same,glycan array binding signal (z-score),[26],-0.478
same,glycan array binding signal (z-score),GlcNAc(b1-4)GlcNAc,-0.315
same,glycan array binding signal (z-score),[27],-0.278
same,glycan array binding signal (z-score),[28],0.482
